The whole screen tested about 370,000 compounds, of which about 150 (0.041%) were called active. Inconclusive means that the source gave no clear call. Such entries were picked first, then a sample of the others. Calls follow the shape of the dose curve; as a rule, active = well fitted inhibition curve with a large enough effect; inconclusive = small, poorly fitted or top-dose-only effect; inactive = flat fitted curve, though single readings scatter. No potency is given beside an inconclusive call; the fits are too rough.
Each molecule was assayed against Beta-lactamase (Escherichia coli (strain K12)) (UniProt P00811) (assay: qHTS Inhibitors of AmpC Beta-Lactamase (assay with detergent)). Settings: AmpC hydrolysis of nitrocefin, absorbance 480 nm, 0.01% Triton; activity change, negative = inhibition: at 114 µM (top of the series).
Chain of UniProt P00811 (P00811 whole entry, looked up): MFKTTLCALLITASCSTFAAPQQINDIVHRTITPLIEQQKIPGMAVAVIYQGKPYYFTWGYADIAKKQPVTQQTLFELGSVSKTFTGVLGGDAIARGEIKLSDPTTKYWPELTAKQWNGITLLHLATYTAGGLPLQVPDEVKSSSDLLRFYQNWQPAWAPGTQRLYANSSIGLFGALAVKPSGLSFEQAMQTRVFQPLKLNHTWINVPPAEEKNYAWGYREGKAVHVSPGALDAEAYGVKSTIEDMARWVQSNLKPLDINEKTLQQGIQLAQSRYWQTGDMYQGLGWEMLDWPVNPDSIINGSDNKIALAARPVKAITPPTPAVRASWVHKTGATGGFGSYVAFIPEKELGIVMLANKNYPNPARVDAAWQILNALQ
Outline: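 20 mM phosphate pH 7.0 + 0.01% (detergent screen) or 0.0001% Triton X-100; 5.3 nM AmpC reagent; cpd preinc 15 min RT; nitrocefin (800 uM stock) to start; A480 q20 s × 4 min; Activity was normalised to no-enzyme and no-compound control wells.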
Also: nearly all actives have a fitted effect of over 25% in size.
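For activity change, negative = inhibition in this document: 0% = no-compound wells and -100% = no-enzyme wells.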
Potency is read from the fitted curve at half-maximal effect; tags tell the direction and shape of the fitted curve.

Question: `Cc1ccc2nc(NCc3ccco3)c(C=NCc3ccco3)c(=O)n2c1` was tested. Which “activity change, negative = inhibition” value did it give?
Answer: inactive: 0.537%

Question: `O=C(c1cnc(-c2ccccc2)s1)c1ccc(Cl)cc1Cl` was tested. Which Potency did it give?
Answer: inconclusive [inhibitor, full curve, poor fit]

Question: Which Potency does the source give for `CCCC(CCC)c1nnc(NC(=O)c2ccco2)s1` here?
Answer: inconclusive [inhibitor, partial curve]

Question: Which Potency does the source give for `Cc1ccccc1NC(=O)c1cnn(-c2ccccc2)c1NC(=O)c1ccco1` here?
Answer: inconclusive [inhibitor, full curve, poor fit]

Question: How did the Potency turn out when `CC(C)(C)NC(=O)CSc1nnc(CN2CCCCCC2=O)n1-c1ccccn1` was run?
Answer: inconclusive [inhibitor, partial curve, poor fit]

Question: With `Clc1ccc(-c2noc(CN(Cc3ccccn3)CC3CCCO3)n2)cc1` (stereo not given) as the molecule, how does the “activity change, negative = inhibition” value read?
Answer: inactive: 2.89%

Question: `CC(=O)Nc1ccc(NC(=O)c2cc([N+](=O)[O-])cc([N+](=O)[O-])c2)cc1` was tested. Which “activity change, negative = inhibition” value did it give?
Answer: inactive: 1.88%

Question: For `NCCCNC(=O)c1cc2ccccc2[nH]1`, which Potency is on record?
Answer: inconclusive [inhibitor, full curve, poor fit]

Question: Which “activity change, negative = inhibition” value does the source give for `Cc1ccc(C(=O)N2CC(=O)Nc3ccc(F)cc3C2c2ccc(F)cc2)cc1[N+](=O)[O-]` (stereo not given) here?
Answer: inactive: 7.06%

Question: With `CC(Nc1cc(N2CCN(S(=O)(=O)N(C)C)CC2)ccc1[N+](=O)[O-])c1ccccc1` (stereo not given) as the molecule, how does the “activity change, negative = inhibition” value read?
Answer: inactive: 0.637%

Question: How did the Potency turn out when `CCc1nnc(NC(=O)c2c(C)nn(-c3ccccc3)c2Cl)s1` was run?
Answer: inconclusive [inhibitor, full curve, poor fit]

Question: With `COc1ccc(Oc2ccc(NC(=O)c3ccccc3C)cc2)cc1` as the molecule, how does the Potency read?
Answer: inconclusive [inhibitor, single point]

Question: `O=C(Nc1ccc2ccccc2c1)NC1CCS(=O)(=O)C1` (stereo not given) was tested. Which “activity change, negative = inhibition” value did it give?
Answer: inactive: -8.8%

Question: With `Cc1ccc(CCNC(=O)CN2CCN(Cc3ccccc3F)C2=O)cc1` as the molecule, how does the Potency read?
Answer: inconclusive [inhibitor, partial curve, poor fit]

Question: `COc1ccc2[nH]c3c(c2c1)CCN1C(=O)N([C@@H](C)C(=O)NC2CCCCC2C)C(=O)[C@]31C` (stereo not given in full) was tested. Which Potency did it give?
Answer: inconclusive [inhibitor, full curve, poor fit]

Question: How did the Potency turn out when `COc1ccc(OC)c(NC(=O)COc2ccc(S(=O)(=O)NC(C)C)cc2)c1` was run?
Answer: inconclusive [inhibitor, full curve, poor fit]

Question: For `COc1ccc(C(=O)Oc2ccc(-c3nnco3)cc2)cc1S(=O)(=O)N1CCOCC1`, which Potency is on record?
Answer: inconclusive [inhibitor, full curve, poor fit]

Question: How did the “activity change, negative = inhibition” value turn out when `O=C(NC(NC(=S)Nc1ccccc1C(=O)O)C(Cl)(Cl)Cl)c1ccco1` (stereo not given) was run?
Answer: inactive: -1.49%

Question: With `CCc1ccc(NC(=O)C2CCN(c3nnc(-n4c(C)ccc4C)s3)CC2)cc1` as the molecule, how does the “activity change, negative = inhibition” value read?
Answer: inactive: 3.72%

Question: Which Potency does the source give for `O=C(NC(=S)N1CCOCC1)C12CC3CCC(CC(C3)C1)C2` here?
Answer: inconclusive [inhibitor, single point]

Question: How did the Potency turn out when `Cc1ccc(C(=O)NC(C)c2nc3ccccc3n2CC(=O)Nc2c(C)cc(C)cc2C)cc1` (stereo not given) was run?
Answer: inconclusive [inhibitor, partial curve]

Question: For `COc1ccc(Br)c2c1-c1nc(NC(=O)c3cccc(C)c3)sc1C2`, which “activity change, negative = inhibition” value is on record?
Answer: inactive: 0.144%

Question: Which Potency does the source give for `Cc1ccc(-n2nc(-c3ccc(N)cc3)cc2N)cc1` here?
Answer: inconclusive [inhibitor, full curve, poor fit]

Question: Which “activity change, negative = inhibition” value does the source give for `COc1ccc(OC)c(NC(=O)CSc2n[nH]c(-c3ccccc3Cl)n2)c1` here?
Answer: inactive: 17.7%

Question: `Brc1ccc(-c2ccc(CNCCSc3nnnn3-c3ccccc3)o2)cc1` was tested. Which “activity change, negative = inhibition” value did it give?
Answer: inactive: 18.3%

Question: For `CCCCOC(=O)N1CCOCCOCCN(C(=O)OCCCC)CCOCCOCC1`, which Potency is on record?
Answer: inconclusive [inhibitor, partial curve]

Question: With `Cc1[nH]c2ccccc2c1C(=O)/C=C/c1ccccc1Cl` as the molecule, how does the “activity change, negative = inhibition” value read?
Answer: inactive: -14.2%

Question: How did the “activity change, negative = inhibition” value turn out when `Cc1ccc(CN(C(=O)c2cc(=O)c3cc(Cl)c(C)cc3o2)C2CCS(=O)(=O)C2)cc1` (stereo not given) was run?
Answer: inactive: -12.8%

Question: How did the Potency turn out when `Cn1ncc(Br)c1NC(=O)Nc1ccc(OC(F)(F)F)cc1` was run?
Answer: inconclusive [inhibitor, single point]

Question: `NC(=O)c1ccccc1NC(=O)Nc1cccc(Cl)c1` was tested. Which Potency did it give?
Answer: inconclusive [inhibitor, full curve]

Question: With `COc1ccc(N2CC(O)=C(c3nc(C)cs3)C2=N)cc1` as the molecule, how does the “activity change, negative = inhibition” value read?
Answer: inactive: -1.8%

Question: Which Potency does the source give for `Cc1nnsc1S(=O)c1ccc(Cl)c(Cl)c1` (stereo not given) here?
Answer: inconclusive [inhibitor, partial curve, poor fit]

Question: Which Potency does the source give for `CCOC(=O)Nc1cc(C(=O)OC)cc(C(=O)OC)c1` here?
Answer: inconclusive [inhibitor, partial curve, poor fit]

Question: `CCOC(=O)C(CC)Sc1nc2c(cnn2-c2ccccc2)c(=O)[nH]1` (stereo not given) was tested. Which Potency did it give?
Answer: inconclusive [inhibitor, single point]

Question: With `Cc1ccc(-c2nc3ccc([N+](=O)[O-])cc3[nH]2)cc1` as the molecule, how does the “activity change, negative = inhibition” value read?
Answer: inactive: 1.91%

Question: Which Potency does the source give for `COC(=O)CC1Oc2ccc(C)cc2NC1=O` (stereo not given) here?
Answer: inconclusive [inhibitor, full curve, poor fit]

Question: With `COc1ccc(/C(N)=C/C(=O)C(C)(C)C)cc1` as the molecule, how does the “activity change, negative = inhibition” value read?
Answer: inactive: -17.4%

Question: Which “activity change, negative = inhibition” value does the source give for `Cc1csc(NS(=O)(=O)c2ccc(Cl)cc2)n1` here?
Answer: inactive: 7.44%

Question: Which Potency does the source give for `Cc1noc(/C=C/N(C)C)c1S(=O)(=O)N1CCCC(C(=O)N2CCCCC2)C1` (stereo not given) here?
Answer: inconclusive [inhibitor, full curve, poor fit]

Question: How did the Potency turn out when `COC(=O)c1c(-c2cccs2)csc1NC(=O)CN1CCOCC1` was run?
Answer: inconclusive [inhibitor, full curve, poor fit]

Question: With `COc1ccc(CCNC(=O)CN(c2ccc(C)cc2)S(=O)(=O)c2ccc(OC)cc2)cc1` as the molecule, how does the “activity change, negative = inhibition” value read?
Answer: inactive: -4.28%

Question: With `CCc1nnc(NC(=O)CCC(=O)N2CCN(Cc3cc(Cl)ccc3OC)CC2)s1` as the molecule, how does the Potency read?
Answer: inconclusive [inhibitor, full curve, poor fit]

Question: Which Potency does the source give for `COc1ccc(/C=C(/NC(=O)c2ccc(C)cc2)C(=O)NCC2CCCO2)cc1` (stereo not given) here?
Answer: inconclusive [inhibitor, full curve, poor fit]

Question: With `NC(=O)c1ccc2c(c1)OCCO2` as the molecule, how does the Potency read?
Answer: inconclusive [inhibitor, full curve, poor fit]

Question: `CCOC(=O)c1ccc(NC(=O)CN(c2ccc(C)cc2)S(=O)(=O)c2ccc(OC)cc2)cc1` was tested. Which “activity change, negative = inhibition” value did it give?
Answer: inactive: 3.97%

Question: Which “activity change, negative = inhibition” value does the source give for `Cc1ccccc1N(C(=O)Cn1nnc2ccccc21)C(C(=O)NCc1ccco1)c1ccncc1` (stereo not given) here?
Answer: inactive: -4.08%

Question: For `CC(=O)Nc1ccc(NC(=O)c2ccc(S(=O)(=O)N(C)c3ccccc3)cc2)cc1`, which “activity change, negative = inhibition” value is on record?
Answer: inactive: -3.52%

Question: `COc1cccc(CN2CCN(C(=O)c3cccc4ccccc34)CC2)c1` was tested. Which Potency did it give?
Answer: inconclusive [inhibitor, full curve, poor fit]

Question: For `CN(C)S(=O)(=O)c1ccc2c(c1)c(=O)c(C(=O)N1CCN(c3cccc(Cl)c3)CC1)cn2C`, which “activity change, negative = inhibition” value is on record?
Answer: inactive: -0.419%

Question: How did the “activity change, negative = inhibition” value turn out when `O=C(C1CCN(Cc2ccc(Cl)cc2)CC1)N1CCN(C(c2ccccc2)c2ccccc2)CC1` was run?
Answer: inactive: -3.5%

Question: How did the “activity change, negative = inhibition” value turn out when `O=C(Nc1ccc(Cl)cc1)Nc1csc([N+](=O)[O-])c1` was run?
Answer: inactive: 8.4%

Question: How did the Potency turn out when `O=C(CCc1nc2ccccc2c(=O)[nH]1)Nc1cc(Cl)ccc1N1CCCCC1` was run?
Answer: inconclusive [inhibitor, single point]

Question: With `COc1ccc(C(=O)c2sc3nc(C)cc(-c4cccs4)c3c2N)cc1` as the molecule, how does the Potency read?
Answer: inconclusive [inhibitor, single point]

Question: How did the Potency turn out when `COc1ccc(CCN(C)C(=O)C2CCCN(C3CCN(Cc4ccccc4)CC3)C2)cc1OC` (stereo not given) was run?
Answer: inconclusive [inhibitor, partial curve]

Question: How did the Potency turn out when `CCOC(=O)N1CCN(C(=O)CN(c2cc(Cl)ccc2OC)S(=O)(=O)c2ccccc2)CC1` was run?
Answer: inconclusive [inhibitor, partial curve, poor fit]

Question: `CCCCc1c(C)nn(-c2nnc3c4ccccc4n(C)c3n2)c1C` was tested. Which “activity change, negative = inhibition” value did it give?
Answer: inactive: 0.761%

Question: For `CCCOc1ccc(/C=C/C(=O)Nc2ccc([N+](=O)[O-])cc2)cc1`, which “activity change, negative = inhibition” value is on record?
Answer: inactive: -0.688%

Question: `N#CC1=C2SCN(Cc3ccco3)CN2C(=O)CC1c1c(F)cccc1Cl` (stereo not given) was tested. Which “activity change, negative = inhibition” value did it give?
Answer: inactive: -10.5%

Question: Which Potency does the source give for `Cc1ccc(C(=O)NC2CCCCC2)cc1S(=O)(=O)N1CCCC1` here?
Answer: inconclusive [inhibitor, single point]

Question: Which Potency does the source give for `COC(=O)c1ccc(N=Nc2ccccc2)cc1` here?
Answer: inconclusive [inhibitor, full curve, poor fit]

Question: How did the Potency turn out when `CC(C)(C)c1ccc(-n2ncc3c2CCCC3NC(=O)c2csnn2)cc1` (stereo not given) was run?
Answer: inconclusive [inhibitor, full curve, poor fit]

Question: `CCN(CC(=O)Nc1ccc(OC)cc1)C(=O)COc1cccc2c1OC(C)(C)C2` was tested. Which Potency did it give?
Answer: inconclusive [inhibitor, partial curve, poor fit]

Question: With `O=C(Cc1ccc(Br)cc1)Nc1ccccc1Cl` as the molecule, how does the Potency read?
Answer: inconclusive [inhibitor, full curve, poor fit]

Question: Which Potency does the source give for `Cc1ccc2c(c1)N(CC(=O)N1CCCc3ccccc31)C(=O)CO2` here?
Answer: inconclusive [inhibitor, partial curve, poor fit]

Question: With `O=C(CSc1nc2ccccc2[nH]1)c1ccc2c(c1)OCO2` as the molecule, how does the “activity change, negative = inhibition” value read?
Answer: inactive: -3.47%

Question: With `COC(=O)c1ccccc1NC(=O)CSc1nnc(-c2cccnc2)n1C` as the molecule, how does the Potency read?
Answer: inconclusive [inhibitor, partial curve, poor fit]

Question: How did the Potency turn out when `Cc1nn(Cc2ccccc2)c(C)c1NC(=O)c1cc(-c2ccc3c(c2)OCO3)on1` was run?
Answer: inconclusive [inhibitor, single point]

Question: Which “activity change, negative = inhibition” value does the source give for `COC(=O)c1cc(NC(=O)Cn2ncc3c2-c2ccccc2OC3)cc(C(=O)OC)c1` here?
Answer: inactive: 0.146%

Question: With `O=C(c1ccco1)N1CCN(C(=O)c2cc3c(=O)oc4ccccc4c3s2)CC1` as the molecule, how does the Potency read?
Answer: inconclusive [inhibitor, single point]

Question: Which Potency does the source give for `COc1ccc(OC)c(/C=C/C(=O)N2CCN(S(=O)(=O)c3ccc(C)cc3C)CC2)c1` here?
Answer: inconclusive [inhibitor, partial curve, poor fit]

From PubChem BioAssay AID485294 (National Center for Advancing Translational Sciences (NCATS), 2010)
